Source: the supplement of paper PMC8728848
This is one part of the list.

What was measured:
Assay in all cases: glycan array binding signal (z-score within array); higher = stronger binding
Conditions in all cases: glycan notation: IUPAC condensed, linker removed
Gal6S(b1-4)GlcNAc = target: Gal6S(b1-4)GlcNAc
How it was run: (§1)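 Arrays were curated from the Consortium for Functional Glycomics database, 3228 in total, and kept only where the protein sequence was available. Binding is expressed as a within-array Z-score. This score was averaged across arrays of the same protein sequence at different concentrations or buffers and across linkers, and negative values can be read as non-binding.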

Gal6S(b1-4)GlcNAc6S = target: Gal6S(b1-4)GlcNAc6S
How it was run: as §1

GalNAc(a1-3)Gal = target: GalNAc(a1-3)Gal
How it was run: as §1

GalNAc(a1-3)GalNAc = target: GalNAc(a1-3)GalNAc
How it was run: as §1

[1] = target: GalNAc(a1-3)GalNAc(a1-3)Gal(a1-4)Gal(b1-4)GlcNAc
How it was run: as §1

[2] = target: GalNAc(a1-3)GalNAc(b1-3)Gal(a1-4)Gal(b1-4)Glc
How it was run: as §1

GalNAc(b1-3)Gal = target: GalNAc(b1-3)Gal
How it was run: as §1

[3] = target: GalNAc(b1-3)Gal(a1-4)Gal(b1-4)GlcNAc
How it was run: as §1

[4] = target: GalNAc(b1-3)Gal(a1-4)Gal(b1-4)GlcNAc(b1-3)Gal(b1-4)Glc
How it was run: as §1

[5] = target: GalNAc(b1-3)Gal(a1-6)Gal(b1-4)Glc
How it was run: as §1

GalNAc(b1-3)GalNAc = target: GalNAc(b1-3)GalNAc
How it was run: as §1

GalNAc(b1-3)GlcNAc = target: GalNAc(b1-3)GlcNAc
How it was run: as §1

GalNAc(b1-4)Gal(b1-4)Glc = target: GalNAc(b1-4)Gal(b1-4)Glc
How it was run: as §1

GalNAc(b1-4)GlcNAc = target: GalNAc(b1-4)GlcNAc
How it was run: as §1

[6] = target: GalNAc(b1-4)GlcNAc(b1-2)Man
How it was run: as §1

[7] = target: GalNAc(b1-4)GlcNAc(b1-2)Man(a1-3)[GalNAc(b1-4)GlcNAc(b1-2)Man(a1-6)]Man(b1-4)GlcNAc(b1-4)GlcNAc
How it was run: as §1

[8] = target: GalNAc(b1-4)GlcNAc(b1-3)GalNAc(b1-4)GlcNAc
How it was run: as §1

GalNAc(b1-4)GlcNAc6S = target: GalNAc(b1-4)GlcNAc6S
How it was run: as §1

GalNAc(b1-6)GalNAc = target: GalNAc(b1-6)GalNAc
How it was run: as §1

GalNAc3S(b1-4)GlcNAc = target: GalNAc3S(b1-4)GlcNAc
How it was run: as §1

GalNAc3S(b1-4)GlcNAc3S = target: GalNAc3S(b1-4)GlcNAc3S
How it was run: as §1

[9] = target: GalNAc3S(b1-4)[Fuc(a1-3)]GlcNAc
How it was run: as §1

GalNAc4S6S(b1-4)GlcNAc = target: GalNAc4S6S(b1-4)GlcNAc
How it was run: as §1

GalNAc6S(b1-4)GlcNAc = target: GalNAc6S(b1-4)GlcNAc
How it was run: as §1

Glc(a1-4)Glc = target: Glc(a1-4)Glc
How it was run: as §1

[10] = target: Glc(a1-4)Glc(a1-4)Glc(a1-4)Glc
How it was run: as §1

Glc(a1-6)Glc(a1-6)Glc = target: Glc(a1-6)Glc(a1-6)Glc
How it was run: as §1

[11] = target: Glc(a1-6)Glc(a1-6)Glc(a1-6)Glc
How it was run: as §1

Glc(b1-4)Glc = target: Glc(b1-4)Glc
How it was run: as §1

Glc(b1-6)Glc = target: Glc(b1-6)Glc
How it was run: as §1

GlcA(b1-3)Gal = target: GlcA(b1-3)Gal
How it was run: as §1

GlcA(b1-3)GlcNAc = target: GlcA(b1-3)GlcNAc
How it was run: as §1

GlcA(b1-6)Gal = target: GlcA(b1-6)Gal
How it was run: as §1

[12] = target: GlcA3S(b1-3)Gal(b1-4)GlcNAc(b1-2)Man
How it was run: as §1

[13] = target: GlcA3S(b1-3)Gal(b1-4)GlcNAc(b1-3)Gal(b1-4)Glc
How it was run: as §1

[14] = target: GlcNAc(a1-3)Gal(b1-4)GlcNAc
How it was run: as §1

[15] = target: GlcNAc(a1-4)Gal(b1-3)GlcNAc
How it was run: as §1

B1: ACA (Amaranthus caudatus) (protein)
chain: MAGLPVIMCLKSNNNQKYLRYQSDNIQQYGLLQFSADKILDPLAQFEVEPSKTYDGLVHIKSRYTNKYLVRWSPNHYWITASANEPDENKSNWACTLFKPLYVEEGNMKKVRLLHVQLGHYTQNYTVGGSFVSYLFAESSQIDTGSKDVFHVIDWKSIFQFPKRYVTFKGNNGKYLGVITINQLPCLQFGYDNLNDPKVAHEMFVTSNGTICIKSTYMNKFWRLSTDDWILVDGNDPRETNEAAALFRSDVHDFNVISLLNMQKTWFIKRFTSGKPGFINCMNAATQNVDETAILEIIELGSNN
glycan array binding signal (z-score) (Gal6S(b1-4)GlcNAc): -0.235 | glycan array binding signal (z-score) (Gal6S(b1-4)GlcNAc6S): -0.097 | glycan array binding signal (z-score) (GalNAc(a1-3)Gal): -0.42 | glycan array binding signal (z-score) (GalNAc(a1-3)GalNAc): -0.401 | glycan array binding signal (z-score) [1]: -0.18 | glycan array binding signal (z-score) [2]: -0.541 | glycan array binding signal (z-score) (GalNAc(b1-3)Gal): -0.355 | glycan array binding signal (z-score) [3]: -0.526 | glycan array binding signal (z-score) [4]: -0.38 | glycan array binding signal (z-score) [5]: -0.084 | glycan array binding signal (z-score) (GalNAc(b1-3)GalNAc): -0.213 | glycan array binding signal (z-score) (GalNAc(b1-3)GlcNAc): -0.517 | glycan array binding signal (z-score) (GalNAc(b1-4)Gal(b1-4)Glc): 0.123 | glycan array binding signal (z-score) (GalNAc(b1-4)GlcNAc): 0.037 | glycan array binding signal (z-score) [6]: -0.233 | glycan array binding signal (z-score) [7]: 2 | glycan array binding signal (z-score) [8]: -0.372 | glycan array binding signal (z-score) (GalNAc(b1-4)GlcNAc6S): -0.319 | glycan array binding signal (z-score) (GalNAc(b1-6)GalNAc): -0.432 | glycan array binding signal (z-score) (GalNAc3S(b1-4)GlcNAc): -0.639 | glycan array binding signal (z-score) (GalNAc3S(b1-4)GlcNAc3S): -0.917 | glycan array binding signal (z-score) [9]: -0.439 | glycan array binding signal (z-score) (GalNAc4S6S(b1-4)GlcNAc): -0.719 | glycan array binding signal (z-score) (GalNAc6S(b1-4)GlcNAc): -0.811 | glycan array binding signal (z-score) (Glc(a1-4)Glc): 0.351 | glycan array binding signal (z-score) [10]: -0.121 | glycan array binding signal (z-score) (Glc(a1-6)Glc(a1-6)Glc): 0.053 | glycan array binding signal (z-score) [11]: 0.16 | glycan array binding signal (z-score) (Glc(b1-4)Glc): 0.133 | glycan array binding signal (z-score) (Glc(b1-6)Glc): -0.226 | glycan array binding signal (z-score) (GlcA(b1-3)Gal): 0.104 | glycan array binding signal (z-score) (GlcA(b1-3)GlcNAc): 0.057 | glycan array binding signal (z-score) (GlcA(b1-6)Gal): 0.06 | glycan array binding signal (z-score) [12]: -0.456 | glycan array binding signal (z-score) [13]: -0.474 | glycan array binding signal (z-score) [14]: -0.278 | glycan array binding signal (z-score) [15]: -0.326
